Test results from US20030224453A1, “Structural models for cytoplasmic domains of transmembrane receptors” (priority 1998, published 2003).

Columns and labels:
[1] = target: T1, filamin (ABP-280) (Homo sapiens, UniProt P21333); assay: Binding of resin-bound cytoplasmic domain model proteins to purified filamin; conditions: result in words
T1 construct: Human uterus filamin (ABP-280) was prepared as a 1.5 mg/ml solution; from tissue; host or cells: human uterus
Experimental: (§1) Purified recombinant cytoplasmic domain proteins (500 μg) were dissolved in a mixture of 5 ml 20 mM Pipes, 50 mM NaCl, pH 6.8 and 1 ml 0.1 M sodium acetate, pH 3.5 and bound overnight to 80 μl of Ni^2+ saturated His-bind resin (Novagen). […] Resins were washed twice with 20 mM Pipes, 50 mM NaCl, pH 6.8, and stored at 4° C. with 0.1% sodium azide as suspensions with one volume of this buffer. Fifty microliters of such a suspension were added to 4.5 ml of cell lysates which had been diluted tenfold with buffer A containing 0.05% TRITON X-100, 3 mM MgCl2 and protease-inhibitors. After incubation overnight at 4° C., resins were washed five times with this buffer and finally heated in 50 μl of reducing sample buffer for SDS PAGE. Samples were separated on 4-20% SDS polyacrylamide gels (NOVEX) and either stained with Coomassie or transferred to Immobilon P membranes (Amersham Corp., Arlington Hts, Ill.). Membranes were blocked with TBS, 5% nonfat-mild powder and stained with streptavidin-peroxidase (VECTASTAIN) or specific antibodies. Bound peroxidase was detected with an enhanced chemiluminescence kit (Amersham).
Human uterus filamin (ABP-280) was prepared as a 1.5 mg/ml solution in 0.6 M KCl, 0.5 mM ATP, 0.5 mM DTT, 10 mM imidazole, pH 7.5. […]

[2] = target: talin (Homo sapiens, UniProt Q9Y490); assay: Binding of resin-bound cytoplasmic domain model proteins to purified talin; parameters: Talin was purified from human platelets in accordance with well known procedures; from tissue; host or cells: human platelets; conditions: result in words
Chain of talin (Q9Y490 whole entry, the tested form may be a part): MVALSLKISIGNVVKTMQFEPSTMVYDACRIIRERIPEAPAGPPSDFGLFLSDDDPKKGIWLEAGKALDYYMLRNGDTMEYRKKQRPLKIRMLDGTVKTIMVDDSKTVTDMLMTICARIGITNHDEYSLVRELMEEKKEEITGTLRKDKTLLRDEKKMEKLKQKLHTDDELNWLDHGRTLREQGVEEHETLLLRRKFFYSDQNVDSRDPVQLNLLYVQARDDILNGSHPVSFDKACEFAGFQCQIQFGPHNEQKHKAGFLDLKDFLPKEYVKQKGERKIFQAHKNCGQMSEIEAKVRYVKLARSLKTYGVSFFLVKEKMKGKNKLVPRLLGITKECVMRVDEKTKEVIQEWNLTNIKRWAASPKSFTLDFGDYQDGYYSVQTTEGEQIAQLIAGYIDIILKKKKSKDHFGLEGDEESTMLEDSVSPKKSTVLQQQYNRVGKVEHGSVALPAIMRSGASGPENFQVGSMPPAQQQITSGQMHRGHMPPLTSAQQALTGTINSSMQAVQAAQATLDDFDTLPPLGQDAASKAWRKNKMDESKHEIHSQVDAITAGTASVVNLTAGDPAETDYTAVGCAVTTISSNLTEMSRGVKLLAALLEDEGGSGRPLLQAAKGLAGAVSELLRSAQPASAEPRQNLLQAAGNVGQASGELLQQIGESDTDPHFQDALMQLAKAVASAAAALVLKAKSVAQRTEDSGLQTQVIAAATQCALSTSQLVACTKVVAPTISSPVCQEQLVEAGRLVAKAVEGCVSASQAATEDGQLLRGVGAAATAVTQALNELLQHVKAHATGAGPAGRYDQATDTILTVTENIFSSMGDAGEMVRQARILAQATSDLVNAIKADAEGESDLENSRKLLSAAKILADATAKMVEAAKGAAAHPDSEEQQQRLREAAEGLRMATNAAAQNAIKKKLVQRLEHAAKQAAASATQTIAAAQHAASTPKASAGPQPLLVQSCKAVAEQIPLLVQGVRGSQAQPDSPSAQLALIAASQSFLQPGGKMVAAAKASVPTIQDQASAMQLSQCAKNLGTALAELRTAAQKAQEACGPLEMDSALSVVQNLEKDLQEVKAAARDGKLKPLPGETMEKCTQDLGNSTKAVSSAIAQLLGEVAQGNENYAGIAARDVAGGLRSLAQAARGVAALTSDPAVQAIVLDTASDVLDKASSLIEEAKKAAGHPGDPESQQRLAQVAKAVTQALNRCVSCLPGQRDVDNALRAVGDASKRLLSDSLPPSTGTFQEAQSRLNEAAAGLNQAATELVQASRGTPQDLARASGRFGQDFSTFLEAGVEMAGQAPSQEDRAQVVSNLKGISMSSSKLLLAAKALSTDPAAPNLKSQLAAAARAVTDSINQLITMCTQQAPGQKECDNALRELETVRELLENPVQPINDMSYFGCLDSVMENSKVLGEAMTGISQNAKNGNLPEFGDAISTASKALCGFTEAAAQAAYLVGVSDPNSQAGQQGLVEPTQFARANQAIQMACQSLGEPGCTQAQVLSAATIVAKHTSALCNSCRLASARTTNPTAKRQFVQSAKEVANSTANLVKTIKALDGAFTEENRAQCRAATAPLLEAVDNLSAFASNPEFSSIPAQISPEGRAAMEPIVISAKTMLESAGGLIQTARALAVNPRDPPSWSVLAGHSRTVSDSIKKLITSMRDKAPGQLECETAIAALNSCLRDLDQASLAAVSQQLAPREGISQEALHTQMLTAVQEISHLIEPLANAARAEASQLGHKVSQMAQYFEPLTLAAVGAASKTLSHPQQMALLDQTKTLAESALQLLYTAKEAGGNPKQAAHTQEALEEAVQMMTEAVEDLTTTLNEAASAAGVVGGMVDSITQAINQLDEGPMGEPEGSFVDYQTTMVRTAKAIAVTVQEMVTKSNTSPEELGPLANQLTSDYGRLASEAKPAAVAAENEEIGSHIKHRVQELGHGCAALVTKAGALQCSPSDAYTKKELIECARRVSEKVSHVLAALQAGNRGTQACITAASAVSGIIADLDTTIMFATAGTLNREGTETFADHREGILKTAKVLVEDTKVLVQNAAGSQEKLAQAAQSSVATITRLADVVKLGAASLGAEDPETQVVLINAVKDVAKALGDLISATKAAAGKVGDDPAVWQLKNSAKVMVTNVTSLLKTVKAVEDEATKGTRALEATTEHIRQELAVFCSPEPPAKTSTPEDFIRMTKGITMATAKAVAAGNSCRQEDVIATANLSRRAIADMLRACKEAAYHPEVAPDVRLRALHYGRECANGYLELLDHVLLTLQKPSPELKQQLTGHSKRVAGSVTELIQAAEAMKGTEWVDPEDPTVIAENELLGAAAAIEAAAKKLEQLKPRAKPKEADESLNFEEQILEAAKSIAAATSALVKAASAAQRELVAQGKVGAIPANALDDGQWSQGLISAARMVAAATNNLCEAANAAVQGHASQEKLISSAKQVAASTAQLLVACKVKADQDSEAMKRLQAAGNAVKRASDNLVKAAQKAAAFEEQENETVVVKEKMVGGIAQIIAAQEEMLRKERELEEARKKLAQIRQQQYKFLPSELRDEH
Experimental: as §1
Talin was purified from human platelets in accordance with well known procedures with an additional purification step using chromatography on phosphocellulose and stored at 1 mg/ml in 10 mM NaCl, 50% glycerol. […]

T1 sequence (P21333 whole entry, the tested form may be a part): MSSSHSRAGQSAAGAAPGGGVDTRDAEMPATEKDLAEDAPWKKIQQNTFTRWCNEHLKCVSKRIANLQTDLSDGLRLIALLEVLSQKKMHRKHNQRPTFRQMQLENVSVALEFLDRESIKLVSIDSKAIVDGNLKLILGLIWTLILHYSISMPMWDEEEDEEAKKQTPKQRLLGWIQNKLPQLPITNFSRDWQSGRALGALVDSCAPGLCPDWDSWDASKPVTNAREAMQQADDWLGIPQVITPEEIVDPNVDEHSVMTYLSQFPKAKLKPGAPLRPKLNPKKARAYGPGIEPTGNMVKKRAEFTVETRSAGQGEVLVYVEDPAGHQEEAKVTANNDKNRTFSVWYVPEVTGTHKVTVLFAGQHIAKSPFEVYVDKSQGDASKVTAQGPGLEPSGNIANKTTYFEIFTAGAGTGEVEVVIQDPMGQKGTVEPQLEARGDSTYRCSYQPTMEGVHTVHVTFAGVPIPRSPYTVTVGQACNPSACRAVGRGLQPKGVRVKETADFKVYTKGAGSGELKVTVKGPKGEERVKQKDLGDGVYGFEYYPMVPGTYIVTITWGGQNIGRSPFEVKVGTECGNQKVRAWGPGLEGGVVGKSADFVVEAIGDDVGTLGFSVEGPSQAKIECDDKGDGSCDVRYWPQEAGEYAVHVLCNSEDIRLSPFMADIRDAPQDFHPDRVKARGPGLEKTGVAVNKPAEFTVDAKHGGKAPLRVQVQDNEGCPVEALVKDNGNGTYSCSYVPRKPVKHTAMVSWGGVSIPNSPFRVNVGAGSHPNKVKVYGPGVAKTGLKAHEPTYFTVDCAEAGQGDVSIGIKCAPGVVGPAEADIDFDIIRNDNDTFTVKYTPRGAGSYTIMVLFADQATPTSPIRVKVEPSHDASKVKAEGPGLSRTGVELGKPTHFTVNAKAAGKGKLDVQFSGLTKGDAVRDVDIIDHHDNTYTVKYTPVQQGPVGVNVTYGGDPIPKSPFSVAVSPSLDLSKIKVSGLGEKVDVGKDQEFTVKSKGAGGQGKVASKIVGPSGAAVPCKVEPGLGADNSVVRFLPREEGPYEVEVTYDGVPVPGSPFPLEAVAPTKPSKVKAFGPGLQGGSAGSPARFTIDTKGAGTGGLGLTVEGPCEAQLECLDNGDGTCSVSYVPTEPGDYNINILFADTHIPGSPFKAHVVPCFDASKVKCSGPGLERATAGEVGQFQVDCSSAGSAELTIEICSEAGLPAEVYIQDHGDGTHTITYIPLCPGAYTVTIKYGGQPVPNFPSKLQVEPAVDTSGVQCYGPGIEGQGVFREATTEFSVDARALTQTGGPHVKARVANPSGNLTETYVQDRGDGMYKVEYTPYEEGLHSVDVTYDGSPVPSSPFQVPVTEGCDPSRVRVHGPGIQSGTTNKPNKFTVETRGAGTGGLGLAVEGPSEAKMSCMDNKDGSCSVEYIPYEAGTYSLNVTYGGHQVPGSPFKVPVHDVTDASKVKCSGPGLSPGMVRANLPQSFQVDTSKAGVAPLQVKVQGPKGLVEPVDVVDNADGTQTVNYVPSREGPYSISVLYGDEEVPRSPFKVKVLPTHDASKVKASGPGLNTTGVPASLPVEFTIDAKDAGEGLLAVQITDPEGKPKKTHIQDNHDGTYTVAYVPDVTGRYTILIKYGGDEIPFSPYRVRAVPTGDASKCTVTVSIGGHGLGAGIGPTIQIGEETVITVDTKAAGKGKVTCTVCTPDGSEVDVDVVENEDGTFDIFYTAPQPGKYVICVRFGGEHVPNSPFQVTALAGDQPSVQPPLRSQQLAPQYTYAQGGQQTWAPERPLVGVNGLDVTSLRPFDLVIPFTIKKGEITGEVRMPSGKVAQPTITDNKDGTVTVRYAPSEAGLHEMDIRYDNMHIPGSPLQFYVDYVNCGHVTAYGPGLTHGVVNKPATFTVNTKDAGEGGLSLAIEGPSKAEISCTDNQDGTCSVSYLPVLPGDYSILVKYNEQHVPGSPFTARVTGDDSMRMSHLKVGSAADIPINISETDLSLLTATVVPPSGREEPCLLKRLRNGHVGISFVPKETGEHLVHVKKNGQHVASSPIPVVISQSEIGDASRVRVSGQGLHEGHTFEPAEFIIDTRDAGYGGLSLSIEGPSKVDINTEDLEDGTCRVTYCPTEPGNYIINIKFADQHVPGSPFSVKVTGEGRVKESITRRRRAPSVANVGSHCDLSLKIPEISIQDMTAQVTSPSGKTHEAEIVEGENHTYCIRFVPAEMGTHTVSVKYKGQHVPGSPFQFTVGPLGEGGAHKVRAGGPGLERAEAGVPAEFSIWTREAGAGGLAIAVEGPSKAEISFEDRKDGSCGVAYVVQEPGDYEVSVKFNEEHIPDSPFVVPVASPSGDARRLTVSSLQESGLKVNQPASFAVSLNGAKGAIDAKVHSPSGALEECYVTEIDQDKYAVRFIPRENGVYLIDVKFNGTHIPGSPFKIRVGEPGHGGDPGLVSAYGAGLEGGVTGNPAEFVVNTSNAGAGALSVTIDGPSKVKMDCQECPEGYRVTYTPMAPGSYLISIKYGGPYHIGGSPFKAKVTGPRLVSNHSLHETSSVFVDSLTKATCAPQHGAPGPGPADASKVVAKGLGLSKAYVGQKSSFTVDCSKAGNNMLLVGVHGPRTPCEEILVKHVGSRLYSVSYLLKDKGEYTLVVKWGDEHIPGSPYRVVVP

B1: G4-β1C: G4 model protein with β1C splice variant cytoplasmic domain (protein)
chain: GSSHHHHHHSSGLVPRGSHMKLEALEGRLDALEGKLEALEGKLDALEGGGGKLLMIIHDRREFAKFEKEKMNAKWDTSLSVAQPGVQWCDISSLQPLTSRFQQFSCLSLPSTWDYRVKILFIRVP
binding of purified filamin, comparison between constructs [1]: functionally reduced | binding of purified talin compared to G4-β1A [2]: functionally reduced
